Experimental data published in PubChem BioAssay AID1347428 (National Center for Advancing Translational Sciences (NCATS), 2020).
Hit rate of the full screen: of about 91,000 compounds, about 290 (0.32%) were called active. This list was built around the results that the source calls inconclusive (neither active nor inactive); the mix of calls is not that of the screen. Calls come from the whole dose curve; as a rule, active = well fitted inhibition curve with a large enough effect; inconclusive = small, poorly fitted or top-dose-only effect; inactive = no such curve, though single readings can be large or run the other way. Potencies of inconclusive entries are doubtful fits and often do not repeat.
% is set by controls: 0 for no effect and ±100 for the full control effect; potency is the fitted concentration of half-maximal effect; tags give direction and shape of the fitted curve.
Note: nearly all actives have a fitted effect of over 25% in size.

What follows are molecules tested against Single-stranded DNA cytosine deaminase (Homo sapiens) (UniProt Q9GZX7) (assay: Primary qHTS assay for inhibitors of Activation Induced Cytidine Deaminase (AID): AID signal). Details: AID deamination FRET fluorescence, UDG-coupled, 4 h; activity change, negative = inhibition: at 115 µM (top of the series).
Sequence of UniProt Q9GZX7 (Q9GZX7 whole entry, looked up): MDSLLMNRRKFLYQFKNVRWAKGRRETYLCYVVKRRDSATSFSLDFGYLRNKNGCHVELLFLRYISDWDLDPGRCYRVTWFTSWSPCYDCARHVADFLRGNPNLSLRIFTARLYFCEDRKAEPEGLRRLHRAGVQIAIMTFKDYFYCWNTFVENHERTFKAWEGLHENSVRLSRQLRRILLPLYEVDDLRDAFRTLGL
For `CC(C)C(NC(=O)c1ccccc1Cl)c1nnc(SCC(=O)c2ccccc2)n1C` (configuration not stated), the “activity change, negative = inhibition” value was inactive: 3.98%.
`O=C(NCc1ccc(F)cc1)c1ccc2c(c1)N(Cc1c(F)cccc1Cl)C(=O)CS2` was tested, and the Potency was inconclusive: 35.5 µM [inhibitor, partial curve, poor fit].
`CC(C)(C)C(=O)/C(C#N)=C\c1cccc(F)c1` was tested, and the “activity change, negative = inhibition” value was inactive: -6.27%.
With `O=C(Cc1n[nH]c(=O)c2ccccc12)Nc1ccc(S(=O)(=O)N2CCCC2)cc1` the Potency was active: 39.8 µM.
In the case of `COc1ccc(-c2ccnc3c2c(=O)[nH]c(=O)n3Cc2ccco2)cc1OC`, the “activity change, negative = inhibition” value is reported as inactive: 9.57%.
With `COc1ccc(S(=O)(=O)c2c(SC)nn(CC(=O)Nc3ccc(C)c(Cl)c3)c2N)cc1` the Potency was inconclusive: 22.4 µM [inhibitor, partial curve, poor fit].
In the case of `CC1CCN(S(=O)(=O)c2ccc3c(ccn3CC(=O)NCc3ccccc3F)c2)CC1`, the Potency is reported as inconclusive: 79.4 µM [inhibitor, partial curve, poor fit].
With `CCn1cc(C(=O)NCCc2ccc(OC)c(OC)c2)c(=O)c2cc(S(=O)(=O)N3CCOCC3)ccc21` the Potency was inconclusive: 89.1 µM [inhibitor, single point].
In the case of `CCOC(=O)c1c(Nc2ccc(O)cc2)nnc(-c2ccccc2)c1-c1ccccc1`, the “activity change, negative = inhibition” value is reported as inactive: -13.2%.
In the case of `Cc1ccc(S(=O)(=O)c2nnn3c2nc(NCc2ccc4c(c2)OCO4)c2sccc23)cc1`, the Potency is reported as inconclusive: 10 µM [inhibitor, partial curve, poor fit].
`CCCNC(=O)NC(=O)COC(=O)c1sccc1C` was tested, and the “activity change, negative = inhibition” value was inactive: 3.06%.
For `CC(C)Oc1ccc(C(=O)N2CCC(c3nc4ccccc4o3)CC2)cc1`, the Potency was inconclusive: 79.4 µM [inhibitor, single point].
`CCCNCc1ccsc1` was tested, and the “activity change, negative = inhibition” value was inactive: -4.18%.
In the case of `Cc1ccccc1NC(=O)c1cn(-c2ccccc2)nc1-c1ccccc1`, the Potency is reported as inconclusive: 20 µM [inhibitor, full curve, poor fit].
With `CCc1nnc2c(N3CCN(c4cccc(C(F)(F)F)c4)CC3)nc3ccccc3n12` the Potency was inconclusive: 50.1 µM [inhibitor, partial curve, poor fit].
In the case of `CSc1nc(-c2ccccc2Cl)nc2c1Cc1c(CO)cnc(C)c1O2`, the Potency is reported as inconclusive: 25.1 µM [inhibitor, full curve].
In the case of `CCCOc1ccc(CNC(=O)c2oc3ccc4c(c3c2C)C(=O)CC(C)(CC)O4)cc1` (configuration not stated), the Potency is reported as inconclusive: 17.8 µM [inhibitor, full curve, poor fit].
For `N#CC1=C2SCN(C3CCCCC3)CN2C(=O)CC1c1ccc(Br)cc1` (configuration not stated), the Potency was inconclusive: 89.1 µM [inhibitor, partial curve, poor fit].
For `Cc1oc2cc3oc(=O)c(CC(=O)N4CCCCC4)c(C)c3cc2c1C`, the Potency was inconclusive: 100 µM [inhibitor, single point].
With `CC(C)NC(=O)c1ccc(NC(=O)C(F)(F)C2(F)OC(F)(F)C(F)(F)C2(F)F)cc1` (configuration not stated) the “activity change, negative = inhibition” value was inactive: 2.58%.
`Cc1ccc(C)c(CN2C(=O)c3ccccc3S(=O)(=O)c3ccc(C(=O)Nc4cc(F)ccc4F)cc32)c1` was tested, and the Potency was inconclusive: 11.2 µM [inhibitor, partial curve, poor fit].
With `O=C(O)c1ccccc1OCc1cn2ccccc2n1` the “activity change, negative = inhibition” value was inactive: -6.47%.
With `COc1ccc(-c2nc(SCC(=O)c3ccc(Cl)cc3)n[nH]2)cc1` the “activity change, negative = inhibition” value was inactive: -17.4%.
With `CCC(CC)C(=O)Nc1nnc(S(=O)(=O)N2CCc3ccccc32)s1` the Potency was inconclusive: 2.82 µM [inhibitor, full curve, poor fit].
With `O=C1CC(c2cc(F)cc(F)c2)c2cc3c(cc2N1)OCO3` (configuration not stated) the Potency was inconclusive: 31.6 µM [inhibitor, partial curve, poor fit].
`CCCCCOc1ccc(Cn2c(=O)oc3ccc(C)cc32)cc1OC` was tested, and the Potency was inconclusive: 39.8 µM [inhibitor, partial curve].
For `COc1ccc(CNC(=O)CCc2c(C)c3cc4c(C)c(C)oc4cc3oc2=O)cc1`, the Potency was inconclusive: 79.4 µM [inhibitor, single point].
`CC(C)(C)OC(=O)N1CCC(c2c(C(=O)N3CCN(c4ccccc4F)CC3)cnn2-c2ccccc2Cl)CC1` was tested, and the Potency was active: 50.1 µM.
With `CCCC(C)NC(=O)NC(C)c1cccc(Cl)c1` (configuration not stated) the “activity change, negative = inhibition” value was inactive: 0.243%.
With `C(#CCN1CCCCC1)COC(c1ccccc1)c1ccccc1` the “activity change, negative = inhibition” value was inactive: -6.93%.
With `Cc1cccc(-c2nc(CCNC(=O)c3ccc(Br)o3)cs2)c1` the Potency was inconclusive: 89.1 µM [inhibitor, partial curve, poor fit].
With `CCOc1ccccc1OCCCCn1c(-c2ccc(Cl)cc2)nc2ccccc2c1=O` the Potency was active: 31.6 µM.
`CCOc1ccc(CNCc2c(C(=O)O)c(C)n(Cc3ccc(C)cc3)c2C)cc1` was tested, and the “activity change, negative = inhibition” value was inactive: -23.6%.
With `CCN1CCN(CCCNC(=O)CS(=O)(=O)Cc2nc(-c3ccccc3C)oc2C)CC1` the Potency was inconclusive: 89.1 µM [inhibitor, single point].
With `CC(=O)N1CCc2c(sc3c2c(=O)n(-c2ccc(F)cc2)c(=O)n3Cc2ccc(C#N)cc2)C1` the Potency was inconclusive: 89.1 µM [inhibitor, single point].
For `COc1cccc2sc(NC(=O)CS(=O)(=O)c3ccc(C)cc3)nc12`, the Potency was inconclusive: 100 µM [inhibitor, single point].
In the case of `O=S(c1cc(Cl)cc(Cl)c1O)c1cc(Cl)cc(Cl)c1O`, the Potency is reported as inconclusive: 79.4 µM [inhibitor, partial curve, poor fit].
For `COc1ccc(S(=O)(=O)c2cnc3cc(OC)c(OC)cc3c2N2CCCC(C)C2)cc1` (configuration not stated), the Potency was inconclusive: 89.1 µM [inhibitor, partial curve, poor fit].
With `CCN1CCC(NC(=O)C2CCN(S(=O)(=O)c3ccccc3F)CC2)CC1` the “activity change, negative = inhibition” value was inactive: 2.35%.
`CCOc1cccc2sc(N3CCN(C(=O)c4ccc5c(c4)CCCC5)CC3)nc12` was tested, and the Potency was inconclusive: 50.1 µM [inhibitor, full curve, poor fit].
`CN(Cc1ccccc1)c1nnc(NC(=O)Nc2cccc(Br)c2)s1` was tested, and the Potency was inconclusive: 35.5 µM [inhibitor, partial curve, poor fit].
In the case of `Cc1cc(N2CCN(C)CC2)nc2ccc(NC(=O)c3ccc(C(C)(C)C)cc3)cc12`, the Potency is reported as inconclusive: 79.4 µM [inhibitor, partial curve, poor fit].
`COc1ccc(NC(=O)C(Cc2c[nH]c3ccccc23)NC(=O)OC(C)(C)C)cc1` (configuration not stated) was tested, and the Potency was inconclusive: 5.62 µM [inhibitor, full curve, poor fit].
With `CCN(CC)C(=O)c1ccc2c(c1)N(Cc1c(F)cccc1Cl)C(=O)c1ccccc1S2` the Potency was active: 70.8 µM.
In the case of `Cc1ccc(N(CC(=O)N2CCN(c3cccc(Cl)c3)CC2)S(=O)(=O)c2c(C)noc2C)cc1`, the Potency is reported as inconclusive: 35.5 µM [inhibitor, partial curve, poor fit].
With `CCNCC(=O)OCC` the “activity change, negative = inhibition” value was inactive: -2.29%.
`Cc1ccc(C)c(N2CCN(C(=O)c3cnn(C(C)(C)C)c3C3CCN(C(=O)OC(C)(C)C)CC3)CC2)c1` was tested, and the Potency was inconclusive: 50.1 µM [inhibitor, partial curve, poor fit].
`CCn1cc2nc(SCc3cccc(C(F)(F)F)c3)n(Cc3ccc(Cl)cc3)c(=O)c2n1` was tested, and the Potency was active: 25.1 µM.
For `Cc1cc(C)cc(-n2ccnc(NCCc3ccccc3)c2=O)c1`, the “activity change, negative = inhibition” value was inactive: -17.9%.
For `CC1CCCCN1c1c(S(=O)(=O)c2ccc(Cl)cc2)cnc2ccccc12` (configuration not stated), the Potency was inconclusive: 10 µM [inhibitor, full curve, poor fit].
In the case of `Cc1ccc(CCNC(=O)c2sc3ncccc3c2-n2c(C)ccc2C)cc1`, the Potency is reported as inconclusive: 44.7 µM [inhibitor, partial curve].
With `COCCNC(=O)c1ccc2nc(CCc3ccccc3)oc2c1` the “activity change, negative = inhibition” value was inactive: -14.1%.
For `CS(=O)(=O)Cc1ccc(C(=O)Nc2ccc(F)cc2F)cc1`, the “activity change, negative = inhibition” value was inactive: -3.88%.
`COc1ccc(Br)cc1/C=C/C(=O)OC1CCCCC1=O` (configuration not stated) was tested, and the “activity change, negative = inhibition” value was inactive: -8.94%.
In the case of `CCOC(=O)C(NC(=O)NC)C(F)(F)F` (configuration not stated), the “activity change, negative = inhibition” value is reported as inactive: 0.0637%.
With `O=C(NCCc1ccccc1)C(=O)NCC(c1cccnc1)N1CCN(c2ccc(F)cc2)CC1` (configuration not stated) the “activity change, negative = inhibition” value was inactive: -11.3%.
In the case of `O=C(CN1C(=O)CSc2ccc(S(=O)(=O)N3CCCCC3)cc21)NCc1ccc(F)cc1Cl`, the Potency is reported as inconclusive: 8.91 µM [inhibitor, full curve, poor fit].
`O=[N+]([O-])c1cccc2ccc(/C=C/c3cccc(F)c3)nc12` was tested, and the “activity change, negative = inhibition” value was inactive: -8.33%.
In the case of `Cc1ccc(C(=O)N2CCN(Cc3ncc(C(C)(C)C)o3)CC2)cc1`, the “activity change, negative = inhibition” value is reported as inactive: -3.74%.
For `COc1cccc(Cc2nc3ccccc3nc2SCC(=O)N2CCCCC2C)c1` (configuration not stated), the Potency was inconclusive: 10 µM [inhibitor, full curve, poor fit].
For `CCCCOc1ccc(C(=O)C(CCC(CNC(C)(C)C)C(=O)c2ccc(OCCCC)cc2)CNC(C)(C)C)cc1` (configuration not stated), the Potency was inconclusive: 79.4 µM [inhibitor, partial curve].
`COc1ccc(NC(C)=O)cc1NC(=O)CNC(c1ccc(F)cc1)c1cccs1` (configuration not stated) was tested, and the Potency was inconclusive: 31.6 µM [inhibitor, partial curve, poor fit].
In the case of `CC(C)c1ccc(C2=CC(c3cccc(Cl)c3)n3ncnc3N2)cc1` (configuration not stated), the Potency is reported as inconclusive: 25.1 µM [inhibitor, single point].
With `Cc1ccc(C)c(NC(=O)CCc2c(C)n(C)c3cc(-c4ccccc4C)nn3c2=O)c1` the Potency was inconclusive: 70.8 µM [inhibitor, partial curve, poor fit].
`CCc1ccc(-n2c(=O)c3c4c(sc3n(CC(=O)NCCCOC)c2=O)CCC4)cc1` was tested, and the “activity change, negative = inhibition” value was inactive: 4.23%.
For `CN(C)S(=O)(=O)Nc1ccc(-c2cn3ccsc3n2)cc1`, the Potency was inconclusive: 39.8 µM [inhibitor, partial curve, poor fit].
For `O=C(CSCc1cnn(-c2ccccc2)c1-n1cccc1)NCc1ccccc1F`, the Potency was inconclusive: 39.8 µM [inhibitor, full curve, poor fit].
